From the supplement of paper PMC5499739
In all, about 16,000 sequences were measured (“Z-score”: median about -0.37, highest 2% from about 3.2 on). Some of the results follow.

Tested on: RBM10 RRM1-ZnF (GST-tagged construct)
Test: RNAcompete 7-mer binding Z-score; higher = stronger binding preference
How it was run: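 A designed pool of 241 399 RNAs, each up to 41 nt and transcribed from microarray-derived DNA templates, was used at 1.5 nmol with 20 pmol of GST-tagged RBM10 constructs. The mixture, in 1 ml Hepes pH 7.8 buffer with KCl, NaCl, glycerol, DTT, BSA and glutathione Sepharose beads, was held 30 min at 4°C and then washed four times for 2 min at 4°C. Bound RNA was read out by microarray hybridisation, and enrichment of each heptamer motif was scored as a one-sided Z-score over the probes carrying it.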

| Sequence | RNAcompete 7-mer binding Z-score |
| --- | --- |
| ACUAAUA | -0.753 |
| CCAGGAA | 0.28 |
| CGGAGCC | -0.0382 |
| ACUGGUU | 0.251 |
| CCAACGU | -0.415 |
| AAAGCGC | -0.223 |
| CCUAUUA | -0.86 |
| AGUCUAA | -0.431 |
| CGCAUCU | -0.704 |
| GGCUGUG | 0.904 |
| AGCCCUU | -0.805 |
| GUUAGAA | 0.712 |
| UCGUAUG | -0.214 |
| AAUCAAC | -0.633 |
| UAUCUAG | -0.477 |
| CCUUAAG | -0.769 |
| GAAAGUC | -0.119 |
| UGAUAUU | -0.506 |
| GGCGCCU | -0.275 |
| GCGGAAA | 1.34 |
| UAGGCGU | 0.738 |
| GUGUUUC | 0.0105 |
| ACACGAG | -0.00246 |

| Sequence | RNAcompete 7-mer binding Z-score |
| --- | --- |
| CAUGCAG | -0.344 |
| GAUAGUU | -0.129 |
| GCAUAUU | -0.565 |
| UAGUGAU | 0.166 |
| UGUAAUC | -0.529 |
| GUCCUAG | -0.487 |
| AAGCUAG | -0.0739 |
| CAGCGAG | 0.397 |
| ACACACA | -0.493 |
| CAGUUUA | -0.681 |
| UUGCGGG | 1.52 |
| UUUACUU | -0.707 |
| CACAUUU | -0.88 |
| CUACGGA | 0.0723 |
| CAGAAAC | -0.444 |
| CCUCCUC | -0.542 |
| UUUGAUU | -0.448 |
| AACUAGU | -0.373 |
| CCGCAAG | -0.685 |
| CGUGCAA | -0.214 |
| GACGUAU | -0.256 |
| CUUUUGA | -0.854 |
| GUUGAGG | 3.36 |

| Sequence | RNAcompete 7-mer binding Z-score |
| --- | --- |
| CGAGUCA | -0.379 |
| GAAGAGG | 3 |
| CAAAAAU | -0.526 |
| UCGGUUA | -0.0869 |
| ACCAUGU | -0.782 |
| AAAUCAU | -0.665 |
| UCAGAGA | -0.0967 |
| CGGCUGU | -0.308 |
| UCGGACA | -0.0999 |
| CUCUGUG | -0.698 |
| CGCACAA | -0.587 |
| GUUCGGC | -0.0869 |
| AUGAACA | 0.215 |
| ACUGAUC | -0.691 |
| AGAUCAA | -0.513 |
| GCCAAUG | -0.0934 |
| GUAGUUC | -0.243 |
| AGCGCCC | -0.5 |
| UGGGCUG | 1.83 |
| CUGCACC | -0.441 |
| GUCGAUC | -0.269 |
| ACACUGG | 0.332 |
| CCCAUCU | -0.834 |

| Sequence | RNAcompete 7-mer binding Z-score |
| --- | --- |
| UAUACAU | -0.509 |
| AUGAGUU | 0.134 |
| AGGCAAG | 1.09 |
| AGACAAG | 0.449 |
| CCUAAAU | -0.74 |
| ACAUCCC | -0.587 |
| AAGCAGC | -0.0934 |
| UAAAUUA | -0.532 |
| ACGCGCC | -0.542 |
| UAUGGUA | 1.39 |
| GUACGCG | 0.599 |
| GGCACGG | 1.43 |
| GCAGGCC | -0.178 |
| CUUUCAU | -0.785 |
| UCAAUAG | -0.256 |
| ACACCAC | -0.162 |
| UUAGUGG | 1.42 |
| ACUACGG | 0.365 |
| AGGCCCC | -0.626 |
| CUAUCCG | -0.863 |
| UAAGCUG | -0.201 |
| UUAGCCG | -0.844 |
| GCCAGUG | -0.253 |

| Sequence | RNAcompete 7-mer binding Z-score |
| --- | --- |
| UUUGAGA | 0.043 |
| CGGCUUC | -0.633 |
| UUGUCUC | -0.808 |
| UUUAAAG | -0.334 |
| UUAUGCC | -0.724 |
| GCAUGUU | -0.373 |
| GUCCCAA | -0.626 |
| CUGAUAA | -0.457 |
| UACGUGU | -0.318 |
| CCUUCGG | -0.636 |
| CUAGUGU | -0.412 |
| AUAAUGA | -0.0837 |
| ACUCUUG | -0.776 |
| UUCUUGU | -0.668 |
| AUCAUUA | -0.539 |
| AGGAUGC | 1.03 |
| UUAGGGA | 2.03 |
| UGGACUU | 0.0235 |
| CUAGGUC | -0.0544 |
| UCGUUCC | -0.698 |
| GUUGGUU | 0.914 |
| CAAGGCU | -0.314 |
| ACGACUC | -0.815 |

| Sequence | RNAcompete 7-mer binding Z-score |
| --- | --- |
| ACGCUAU | -0.496 |
| CGACCUG | -0.571 |
| GCUGGAG | 0.904 |
| GCCAAGU | -0.529 |
| ACGAAUU | -0.503 |
| GGUCCUG | 0.15 |
| AGCGGUG | 1.42 |
| UCCUAUG | -0.73 |
| UAGAAAC | 0.0105 |
| GGAAAGU | 2.15 |
| ACCUAGC | -0.633 |
| AAUAUGA | 0.056 |
| AGCACUG | -0.158 |
| AACCAGC | -0.724 |
| UGAAGGC | 1 |
| CAACUCA | -0.655 |
| AUUAUAG | 0.095 |
| UGUCGGC | -0.444 |
| CCCAGGA | -0.0869 |
| CACAGGC | -0.126 |
| GCCUCCU | -0.623 |
| ACGCGUU | -0.503 |
| AGUACAG | 0.576 |

| Sequence | RNAcompete 7-mer binding Z-score |
| --- | --- |
| GUACUCC | -0.604 |
| CGUCAUA | -0.714 |
| GAUGUAC | -0.0285 |
| AUGUGUG | 1.01 |
| UUUCUUA | -0.727 |
| AAGGAGG | 4.7 |
| CCGUCGC | -0.62 |
| UGUCGUA | -0.311 |
| CGAAAAG | 0.381 |
| AUCCGAA | -0.665 |
| CCAUGAU | -0.685 |
| UGACUUG | -0.617 |
| UCUUGUC | -0.795 |
| UCUUUGU | -0.912 |
| CACCCAG | -0.522 |
| GACGGAG | 2.11 |
| UCUUGCC | -0.945 |
| CCUCCCU | -0.454 |
| ACAGUUC | -0.795 |
| GGACAGG | 3.3 |
| UGACCCC | -0.246 |
| UACGCUG | -0.184 |
| CCACGAU | -0.652 |

| Sequence | RNAcompete 7-mer binding Z-score |
| --- | --- |
| GUUUAAU | -0.435 |
| UCGAGCG | 0.0723 |
| CACAAGU | -0.539 |
| CUGGGUU | 1.53 |
| GCAAAUA | -0.236 |
| CAUACUC | -0.727 |
| GGGAAGC | 2.9 |
| AAUGCCG | -0.542 |
| UGUUAUU | -0.662 |
| AAUCCCC | -0.607 |
| CAGUGAA | 0.277 |
| GUAGAGC | 0.667 |
| AUCCUGA | -0.704 |
| UGUUGGC | 0.0138 |
| UUAUAUG | -0.21 |
| AAGACCU | -0.698 |
| GGGACAA | 2.07 |
| AGAGUAC | -0.292 |
| UGAACUU | -0.571 |
| CAACGCG | -0.451 |
| CUAUCAA | -0.724 |
| ACGGGAG | 2.64 |
